The campaign covered roughly 48,000 compounds. About 1,200 (2.5%) were called active. About 2% were inconclusive and are not listed.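 How the source made its calls: active means activation of at least 60% and not above a set upper limit (about 1 call in 100 departs from these limits); inconclusive means activation of 40% to 60%, or above that upper limit; inactive means activation under 40%.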 Some of the results follow.
These molecules were tested against Probable G-protein coupled receptor 32 (Homo sapiens) (UniProt O75388) (assay: qHTS for Agonists of Human Resolvin D1 Receptor DRV1). Details: CHO-K1 GPR32 beta-arrestin PathHunter luminescence, 90 min; at 76.9 µM; stronger effect = higher value; zero percent set by DMSO-only wells.
In short: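 CHO-K1 cells stably expressing ProLink-tagged GPR32 and Enzyme Activator-tagged beta-arrestin were seeded at 2,500 cells/well overnight, exposed to compounds for 90 min at 37 °C, then read by beta-Gal complementation chemiluminescence after 1 h detection reagent.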
Further: 0% is about no effect.

UniProt O75388, sequence (O75388 whole entry, looked up): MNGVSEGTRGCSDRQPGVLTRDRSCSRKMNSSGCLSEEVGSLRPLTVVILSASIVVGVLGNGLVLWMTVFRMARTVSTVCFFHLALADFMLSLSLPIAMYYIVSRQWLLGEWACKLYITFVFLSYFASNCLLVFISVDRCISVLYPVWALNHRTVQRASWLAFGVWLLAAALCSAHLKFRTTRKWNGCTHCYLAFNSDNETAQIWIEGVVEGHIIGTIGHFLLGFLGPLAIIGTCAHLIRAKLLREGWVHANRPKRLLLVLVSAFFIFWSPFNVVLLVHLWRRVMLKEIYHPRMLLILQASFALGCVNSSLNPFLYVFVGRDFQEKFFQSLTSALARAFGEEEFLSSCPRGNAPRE

activation, inactive:
COc1ccc(-n2ccnc(NCc3cccs3)c2=O)cc1OC -0.385%, CCCCc1ccc(NC(=O)c2cc(-c3ccc(C)c(F)c3)on2)cc1 17.2%, Cc1ccc(OCc2nc(-c3ccc(C(=O)NCCc4ccc(Cl)cc4)cc3)oc2C)cc1 2.36%, Cc1ccc(NC(=O)CN2C(=O)CCc3ccccc32)cc1C -2.52%, CC(C)Nc1ccc(-c2nc(-c3ccncc3)no2)cc1[N+](=O)[O-] -6.16%, Cc1ccccc1CN1C(=O)c2ccccc2Sc2ccc(C(=O)NC3CCCCC3)cc21 -5.21%, COc1ccc(NC(=O)c2nn(C)c3c2CS(=O)(=O)c2ccccc2-3)cc1Cl 7.93%, COc1ccc(C2=C(Nc3ccc(Br)c(C)c3)c3ccccc3C2=O)cc1 -33.1%, CCc1nn(CC(=O)N2CCN(c3cccc(OC)c3)CC2)c(=O)c2cc3occc3n12 7.48%, CCOC(=O)c1c(C)[nH]c(C)c1S(=O)(=O)N1CCCC(C(=O)N2CCN(c3ccccc3F)CC2)C1 (stereo not drawn) -7.13%, COc1ccc(N(CC(=O)NC(C)c2ccccc2)S(=O)(=O)c2c(C)nn(C)c2C)cc1 (stereo not drawn) -4.76%, COc1ccc(N2CCN(Cc3nc4c(c(=O)[nH]c(=O)n4C)n3Cc3ccc(C)cc3)CC2)cc1 -21.9%, CC1CN(C(=O)CCC(=O)NCc2cccc(Cl)c2)c2ccccc2S1 (stereo not drawn) -24%, COc1ccc(S(=O)(=O)c2cnc3cc(OC)c(OC)cc3c2N2CCCC(C)C2)cc1 (stereo not drawn) -32%, O=C(O)c1ccc(Cn2cnc3cccnc32)cc1 0.748%, CC1CCN(CC2CCN(C(=O)NCc3ccc(F)cc3)CC2)CC1 2.87%, Cc1ccc(/C=C/c2onc(C)c2S(=O)(=O)N2CCC(C(=O)N3CCN(c4cccc(C)c4)C(C)C3)CC2)cc1 (stereo not drawn) 2.18%, CCOc1ccc(C2C(C(=O)Nc3ccccc3)=C(C)Nc3nc(SCc4cccc(OC)c4)nn32)cc1 (stereo not drawn) 40.6%, O=C(NCc1ccccc1)c1nc(S(=O)(=O)Cc2ccc(F)cc2)ncc1Cl -25.3%, O=S(=O)(NCCc1csc2nc(-c3ccccc3)nn12)c1cccs1 23.7%, CCOc1ccc(-c2cn3c(n2)sc2cc(C(=O)NCCc4ccc(OC)cc4OC)ccc23)cc1 -10.4%, Cc1nn(C(C)C(=O)NC2CCC(C)CC2)c(=O)c2c1sc1ccccc12 (stereo not drawn) -16.3%, CCc1nc(-c2cc(S(=O)(=O)N3CCN(c4ccc(OC)cc4)CC3)ccc2OC)no1 -2.27%

From PubChem BioAssay AID1346428 (National Center for Advancing Translational Sciences (NCATS), 2018)
